Source: the supplement of paper PMC12217912
The list shows a part of the results. The full chains were built here from the parent and the listed change. Values near 0.05 are background.

B1: TEV protease; numbered along this chain (parent)
chain: MGESLFKGPRDYNPISSSICHLTNESDGHTTSLYGIGFGPFIITNKHLFRRNNGTLVVQSLHGVFKVKDTTTLQQHLVDGRDMIIIRMPKDFPPFPQKLKFREPQREERICLVTTNFQTKSMSSMVSDTSCTFPSGDGIFWKHWIQTKDGQCGSPLVSTRDGFIVGIHSASNFTNTNNYFTSVPKNFMELLTNQEAQQWVSGWRLNADSVLWGGHKVFMVKPEEPFQPVKEATQL

Variants of: B1
Experiment: raw area under fraction-flipped curve 0-4 h after induction (AUC4h, not background-subtracted), DNA-recorder readout of cleavage of the substrate (dimensionless); higher = more cleavage of the substrate by the protease variant
Settings: temperature: 34 °C; time window: 0-4 h after rhamnose induction
Protocol: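 In vivo DNA recorder in E. coli TOP10(DE3) ΔrhaA at 34 °C. Each TEVp single-site mutant (parent TEVp 0) is paired with a single-site variant of the 7-mer TEVs (canonical ENLYFQ|S). The substrate sits between flexible linkers in a Bxb1-sfGFP-TEVs-SsrA fusion, so cleavage stabilises Bxb1 and speeds flipping of a recombination array, read by NGS. The value is the raw area under the fraction-flipped curve over 0-4 h after rhamnose induction (AUC4h), with ≥20 reads per time point. It is not background-subtracted; inactive controls average about 0.047.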
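Also: Bxb1 expression induced with 0.2% (w/v) L-rhamnose at OD600 near 0.5, cultures sampled hourly, flipped fraction per protease–substrate barcode pair counted by paired-end Illumina sequencing.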

Variant | area with substrate ENLYAQS | area with substrate ENLYDQS | area with substrate ENLYGQS | area with substrate ENLYHQS | area with substrate ENLYMQS | area with substrate ENLYNQS | area with substrate ENLYPQS | area with substrate ENLYQQS | area with substrate ENLYRQS | area with substrate ENLYWQS | area with substrate ENLYEQS | area with substrate ENLYIQS | area with substrate ENLYKQS | area with substrate ENLYLQS | area with substrate ENLYTQS | area with substrate ENLYVQS | area with substrate ENLYSQS | area with substrate ENLYYQS | area with substrate ENLYCQS
T176H | 0.0594 | 0.0604 | 0.0592 | 0.0597 | 0.0559 | 0.0572 | 0.0668 | 0.075 | 0.0733 | 0.0663 |  |  |  |  |  |  |  |  | 
T176P | 0.0639 | 0.0511 | 0.0684 | 0.067 | 0.0615 | 0.0642 |  | 0.0581 | 0.0468 |  | 0.0633 | 0.0642 | 0.0669 | 0.063 | 0.0547 | 0.0495 |  |  | 
Y179M | 0.0565 | 0.0392 |  | 0.0468 | 0.0507 |  | 0.0574 | 0.0511 | 0.0593 |  | 0.0521 | 0.0561 | 0.0295 | 0.0433 |  | 0.0732 |  |  | 
P184A | 0.0784 |  | 0.0575 | 0.0649 | 0.0498 | 0.0623 | 0.0588 | 0.0648 | 0.0618 | 0.0722 | 0.0607 | 0.108 | 0.0494 | 0.0686 | 0.0718 | 0.1 | 0.076 | 0.0306 | 
P184Y | 0.0693 |  | 0.0521 | 0.0511 |  | 0.0752 | 0.0612 |  |  |  | 0.0565 | 0.0547 |  | 0.0774 |  | 0.0381 | 0.0613 |  | 
N186A | 0.0816 | 0.0559 |  |  |  |  |  |  | 0.0612 |  | 0.0676 |  |  |  |  |  |  |  | 
N186V | 0.0593 | 0.0595 |  |  |  | 0.0614 | 0.0681 |  | 0.0609 | 0.072 | 0.048 | 0.0998 |  |  |  |  |  | 0.0716 | 
F187P | 0.105 | 0.0563 | 0.0525 | 0.061 | 0.0494 | 0.0474 | 0.0064 | 0.0557 |  | 0.0461 | 0.0495 | 0.0443 | 0.0552 |  |  | 0.0563 | 0.048 |  | 
L191C | 0.06 | 0.0679 | 0.064 | 0.0621 |  | 0.0596 | 0.0699 | 0.0551 | 0.0655 | 0.0812 | 0.0686 | 0.096 | 0.066 |  | 0.0659 | 0.0978 | 0.103 | 0.0545 | 
T192N | 0.0722 | 0.0691 | 0.0469 |  |  | 0.0731 | 0.065 |  | 0.0567 |  | 0.0592 | 0.136 | 0.0533 | 0.0792 |  | 0.145 | 0.0706 | 0.0732 | 
T192R | 0.0809 | 0.0687 | 0.0665 | 0.063 |  | 0.0731 | 0.0795 | 0.0288 | 0.0666 | 0.0917 | 0.0657 | 0.0869 | 0.0474 |  |  | 0.135 | 0.0743 | 0.0662 | 
W199G | 0.0669 | 0.0629 | 0.066 | 0.0734 | 0.069 |  |  |  | 0.057 | 0.0662 | 0.0599 |  | 0.0509 |  |  | 0.0748 | 0.0621 |  | 
V200C | 0.0636 | 0.0287 | 0.0438 | 0.0659 | 0.0826 | 0.0638 | 0.0829 | 0.0781 | 0.0648 | 0.061 | 0.0572 | 0.0896 | 0.0155 |  | 0.0791 | 0.127 | 0.0663 |  | 
S201D | 0.0641 | 0.0612 | 0.0531 | 0.0619 | 0.0624 | 0.0527 | 0.0718 | 0.0444 | 0.0479 |  | 0.0628 | 0.111 | 0.0607 |  |  | 0.104 | 0.0703 |  | 0.103
G202F | 0.0606 | 0.0545 |  | 0.0573 | 0.0714 | 0.0542 |  | 0.054 | 0.0442 |  | 0.0581 |  | 0.0574 |  | 0.0727 |  | 0.0578 | 0.0664 | 
R204I | 0.0715 | 0.0535 | 0.0718 | 0.0669 | 0.0888 | 0.0733 | 0.0775 |  | 0.0698 | 0.0774 | 0.0618 |  | 0.0701 | 0.0533 | 0.0889 | 0.121 | 0.0765 | 0.0571 | 0.0853
A207M | 0.063 | 0.0623 |  | 0.0623 |  | 0.0596 | 0.065 |  |  | 0.0752 | 0.0762 |  |  |  | 0.0745 | 0.131 | 0.0697 |  | 
A207S | 0.0644 | 0.0733 | 0.0703 | 0.0748 |  | 0.0746 | 0.0886 | 0.062 | 0.0635 |  | 0.069 |  | 0.067 | 0.0779 | 0.0813 | 0.129 | 0.0802 |  | 0.0948
D208F | 0.0684 | 0.0591 |  | 0.0361 | 0.0377 | 0.0663 | 0.0665 |  | 0.059 | 0.0531 | 0.0647 | 0.0706 | 0.0612 | 0.0392 |  | 0.0599 | 0.0611 |  | 
D208W | 0.0564 | 0.0644 |  | 0.0586 | 0.0525 | 0.0534 | 0.0522 | 0.0633 | 0.0648 | 0.0703 | 0.0586 | 0.057 | 0.0555 | 0.0545 |  | 0.0745 | 0.0687 |  | 
D208Y | 0.0736 | 0.0656 | 0.0555 | 0.0483 | 0.0691 | 0.0571 | 0.0629 | 0.0707 | 0.0536 | 0.0628 | 0.068 | 0.0684 | 0.06 | 0.0564 | 0.0667 | 0.0886 | 0.0661 |  | 0.0553
W212E | 0.0506 | 0.0569 | 0.0562 | 0.0615 | 0.0751 | 0.0586 |  |  | 0.0655 |  | 0.0612 |  | 0.0464 | 0.0629 | 0.0597 | 0.0844 |  | 0.116 | 
W212V | 0.0714 | 0.0504 | 0.0655 | 0.0728 | 0.0862 | 0.0604 | 0.0741 | 0.0747 | 0.0575 | 0.0931 | 0.0664 | 0.078 | 0.0614 | 0.0731 |  |  | 0.074 | 0.153 | 0.0972
H215Q | 0.0481 | 0.0534 | 0.0683 | 0.07 | 0.0491 | 0.0566 | 0.0574 |  | 0.0567 | 0.0492 | 0.0751 | 0.0374 | 0.0561 | 0.0642 |  |  | 0.0556 | 0.0619 | 
K216A | 0.0574 | 0.0559 |  | 0.0609 | 0.0678 | 0.0605 | 0.063 |  |  |  | 0.0602 | 0.122 | 0.0448 |  |  | 0.13 |  | 0.0662 | 
K216N | 0.064 | 0.0638 | 0.0845 | 0.062 | 0.0724 | 0.0589 | 0.0882 | 0.0602 |  | 0.0709 | 0.0738 |  | 0.0601 | 0.0637 |  |  | 0.0714 | 0.0646 | 0.0597
